# Experimental data reported in US12281149B2, “Modulators of G-protein coupled receptors” (priority 2021, dated 2025).
# At least one structure is not confirmed: it was looked up by name or label, or the drawing left a doubt. *1 amine or outer side, *2 acyl side, *3 side chain or, on linkers, in order; H or OH if unused. Where a SMILES comes first, the peptide text is derived from it. Side-chain parts run from the residue outwards. [ ]: non-standard residue; d: D form. The star is where a group is joined. C20 diacid = O=C(O)CCCCCCCCCCCCCCCCCCC(=O)*; γGlu = O=C(O)[C@H](CCC(=O)[*:2])N[*:1]; 2Thenoyl(5-Cl) = O=C(c1ccc(Cl)s1)*; X27 = O=C1CC(C(=O)*)(c2ccccc2)CN1; X60 = O=C(C1(c2cccnc2)CCCC1)*; X83 = Cc1ccn(C(C)(C)C(=O)*)n1; X24 = O=C(C1(c2cccnc2)CCC1)*; Ac4c = NC1(C(=O)O)CCC1; AEEA = NCCOCCOCC(=O)O; Aib = CC(C)(N)C(=O)O; GABA = NCCCC(=O)O; βAla = NCCC(=O)O
# Tests used:
# Format in all cases: cell-based
# [1] = biological target: T1, GLP-1 receptor (Homo sapiens, UniProt P43220); assay: HitHunter cAMP assay, GLP-1 receptor; settings: CHO cells stably expressing human GLP-1 receptor, cAMP accumulation, 30 min; read-out: EC50 GLP-1R
# T1 sequence (P43220 24-463): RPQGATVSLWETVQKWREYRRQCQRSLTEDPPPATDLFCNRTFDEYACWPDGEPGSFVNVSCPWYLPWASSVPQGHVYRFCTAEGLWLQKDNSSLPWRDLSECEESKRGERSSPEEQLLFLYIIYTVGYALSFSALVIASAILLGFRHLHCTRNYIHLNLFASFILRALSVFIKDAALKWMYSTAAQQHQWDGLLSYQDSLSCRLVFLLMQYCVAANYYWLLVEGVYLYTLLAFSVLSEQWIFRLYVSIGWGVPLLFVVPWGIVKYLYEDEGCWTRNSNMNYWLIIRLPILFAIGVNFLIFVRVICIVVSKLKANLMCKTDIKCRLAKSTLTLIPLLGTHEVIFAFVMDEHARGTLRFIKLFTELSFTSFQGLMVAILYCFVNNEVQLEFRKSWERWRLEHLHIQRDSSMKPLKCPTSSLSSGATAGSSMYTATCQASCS
# [2] = biological target: T2, GIP receptor (Homo sapiens, UniProt P48546); assay: HitHunter cAMP assay, GIP receptor; settings: CHO cells stably expressing GIP receptor, cAMP accumulation, 30 min; read-out: EC50 GIP-1R
# T2 sequence (P48546 22-466): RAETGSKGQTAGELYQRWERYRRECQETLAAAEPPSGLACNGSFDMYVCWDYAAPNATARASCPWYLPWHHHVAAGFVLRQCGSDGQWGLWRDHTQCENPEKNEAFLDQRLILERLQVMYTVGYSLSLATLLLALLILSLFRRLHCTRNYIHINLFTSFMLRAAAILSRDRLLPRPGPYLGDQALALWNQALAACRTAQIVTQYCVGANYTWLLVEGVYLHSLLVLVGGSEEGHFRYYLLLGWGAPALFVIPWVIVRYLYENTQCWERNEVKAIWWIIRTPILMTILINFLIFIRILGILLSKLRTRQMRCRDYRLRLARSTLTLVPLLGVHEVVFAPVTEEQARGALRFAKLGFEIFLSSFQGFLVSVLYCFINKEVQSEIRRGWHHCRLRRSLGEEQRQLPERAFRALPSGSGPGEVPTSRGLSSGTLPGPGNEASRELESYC
# [3] = biological target: T1, GLP-1 receptor; assay: PathHunter β-arrestin assay, GLP-1 receptor; parameters: host or cells: PathHunter CHO-K1 GLP1R β-Arrestin Cell Line; settings: β-arrestin-2 recruitment, PathHunter CHO-K1 GLP1R β-Arrestin Cell Line, 90 min at 37° C.; normalized to GLP-1; read-out: GLP-1R β Arrestin EC50
SMILES,EC50 [1] [nM],EC50 [2] [nM],EC50 [3] [nM]
CC[C@H](C)[C@H](NC(=O)[C@H](CC(C)C)NC(=O)[C@H](Cc1c[nH]c2ccccc12)NC(=O)[C@H](CCC(N)=O)NC(=O)[C@@H](NC(=O)[C@H](Cc1ccccc1)NC(=O)[C@H](C)NC(=O)[C@H](CCCCNC(=O)COCCOCCNC(=O)COCCOCCNC(=O)CC[C@H](NC(=O)CCCCCCCCCCCCCCCCCCC(=O)O)C(=O)O)NC(=O)[C@H](CCC(N)=O)NC(=O)[C@H](C)NC(=O)[C@@H](NC(=O)[C@H](CCCCN)NC(=O)[C@H](CC(=O)O)NC(=O)[C@H](CC(C)C)NC(=O)C(C)(C)NC(=O)[C@@H](NC(=O)[C@H](CO)NC(=O)[C@H](Cc1ccc(O)cc1)NC(=O)[C@H](CC(=O)O)NC(=O)[C@H](CO)NC(=O)[C@@H](NC(=O)[C@H](Cc1ccccc1)NC(=O)[C@@H](NC(=O)CNC(=O)[C@H](CCC(=O)O)NC(=O)CCNC(=O)C1(c2ccccc2)CNC(=O)C1)[C@@H](C)O)[C@@H](C)O)[C@@H](C)CC)[C@@H](C)CC)C(C)C)C(=O)N[C@@H](C)C(=O)NCC(=O)NCC(=O)N1CCC[C@H]1C(=O)N[C@@H](CO)C(=O)N[C@@H](CO)C(=O)NCC(=O)N[C@@H](C)C(=O)N1CCC[C@H]1C(=O)N1CCC[C@H]1C(=O)N1CCC[C@H]1C(=O)N[C@@H](CO)C(N)=O (some centres unmarked) [Compound 250] ({X27-βAla}-EGTFTSDYSI[Aib]LDKIAQK([AEEA-AEEA-γGlu-C20 diacid])AFVQWLIAGGPSSGAPPPS-NH2; C-terminus assumed),0.1 to 1,0.1 to 1,> 1000
CC[C@H](C)[C@H](NC(=O)[C@H](CC(C)C)NC(=O)[C@H](Cc1c[nH]c2ccccc12)NC(=O)[C@H](CCC(N)=O)NC(=O)[C@@H](NC(=O)[C@H](Cc1ccccc1)NC(=O)[C@H](C)NC(=O)[C@H](CCCCNC(=O)COCCOCCNC(=O)COCCOCCNC(=O)CC[C@H](NC(=O)CCCCCCCCCCCCCCCCCCC(=O)O)C(=O)O)NC(=O)[C@H](CCC(N)=O)NC(=O)[C@H](C)NC(=O)[C@@H](NC(=O)[C@H](CCCCN)NC(=O)[C@H](CC(=O)O)NC(=O)[C@H](CC(C)C)NC(=O)C(C)(C)NC(=O)[C@@H](NC(=O)[C@H](CO)NC(=O)[C@H](Cc1ccc(O)cc1)NC(=O)[C@H](CC(=O)O)NC(=O)[C@H](CO)NC(=O)[C@@H](NC(=O)[C@H](Cc1ccccc1)NC(=O)[C@@H](NC(=O)CNC(=O)[C@H](CCC(=O)O)NC(=O)CCCNC(=O)C1(NC(=O)c2ccc(Cl)s2)CCC1)[C@@H](C)O)[C@@H](C)O)[C@@H](C)CC)[C@@H](C)CC)C(C)C)C(=O)N[C@@H](C)C(=O)NCC(=O)NCC(=O)N1CCC[C@H]1C(=O)N[C@@H](CO)C(=O)N[C@@H](CO)C(=O)NCC(=O)N[C@@H](C)C(=O)N1CCC[C@H]1C(=O)N1CCC[C@H]1C(=O)N1CCC[C@H]1C(=O)N[C@@H](CO)C(N)=O [Compound 244] ({2Thenoyl(5-Cl)}-[Ac4c][GABA]EGTFTSDYSI[Aib]LDKIAQK([AEEA-AEEA-γGlu-C20 diacid])AFVQWLIAGGPSSGAPPPS-NH2; C-terminus assumed),1 to 10,1 to 10,> 1000
CC[C@H](C)[C@H](NC(=O)[C@H](CC(C)C)NC(=O)[C@H](Cc1c[nH]c2ccccc12)NC(=O)[C@H](CCC(N)=O)NC(=O)[C@@H](NC(=O)[C@H](Cc1ccccc1)NC(=O)[C@H](C)NC(=O)[C@H](CCCCNC(=O)COCCOCCNC(=O)COCCOCCNC(=O)CC[C@H](NC(=O)CCCCCCCCCCCCCCCCCCC(=O)O)C(=O)O)NC(=O)[C@H](CCC(N)=O)NC(=O)[C@H](C)NC(=O)[C@@H](NC(=O)[C@H](CCCCN)NC(=O)[C@H](CC(=O)O)NC(=O)[C@H](CC(C)C)NC(=O)C(C)(C)NC(=O)[C@@H](NC(=O)[C@H](CO)NC(=O)[C@H](Cc1ccc(O)cc1)NC(=O)[C@H](CC(=O)O)NC(=O)[C@H](CO)NC(=O)[C@@H](NC(=O)[C@H](Cc1ccccc1)NC(=O)[C@@H](NC(=O)CNC(=O)[C@H](CCC(=O)O)NC(=O)CCCNC(=O)C1(c2ccccc2)CNC(=O)C1)[C@@H](C)O)[C@@H](C)O)[C@@H](C)CC)[C@@H](C)CC)C(C)C)C(=O)N[C@@H](C)C(=O)NCC(=O)NCC(=O)N1CCC[C@H]1C(=O)N[C@@H](CO)C(=O)N[C@@H](CO)C(=O)NCC(=O)N[C@@H](C)C(=O)N1CCC[C@H]1C(=O)N1CCC[C@H]1C(=O)N1CCC[C@H]1C(=O)N[C@@H](CO)C(N)=O (some centres unmarked) [Compound 249] ({X27-GABA}-EGTFTSDYSI[Aib]LDKIAQK([AEEA-AEEA-γGlu-C20 diacid])AFVQWLIAGGPSSGAPPPS-NH2; C-terminus assumed),0.1 to 1,10 to 100,> 1000
CC[C@H](C)[C@H](NC(=O)[C@H](CC(C)C)NC(=O)[C@H](Cc1c[nH]c2ccccc12)NC(=O)[C@H](CCC(N)=O)NC(=O)[C@@H](NC(=O)[C@H](Cc1ccccc1)NC(=O)[C@H](C)NC(=O)[C@H](CCCCNC(=O)COCCOCCNC(=O)COCCOCCNC(=O)CC[C@H](NC(=O)CCCCCCCCCCCCCCCCCCC(=O)O)C(=O)O)NC(=O)[C@H](CCC(N)=O)NC(=O)[C@H](C)NC(=O)[C@@H](NC(=O)[C@H](CCCCN)NC(=O)[C@H](CC(=O)O)NC(=O)[C@H](CC(C)C)NC(=O)C(C)(C)NC(=O)[C@@H](NC(=O)[C@H](CO)NC(=O)[C@H](Cc1ccc(O)cc1)NC(=O)[C@H](CC(=O)O)NC(=O)[C@H](CO)NC(=O)[C@@H](NC(=O)[C@H](Cc1ccccc1)NC(=O)[C@@H](NC(=O)CNC(=O)[C@H](CCC(=O)O)NC(=O)CCCNC(=O)C1(c2cccnc2)CCC1)[C@@H](C)O)[C@@H](C)O)[C@@H](C)CC)[C@@H](C)CC)C(C)C)C(=O)N[C@@H](C)C(=O)NCC(=O)NCC(=O)N1CCC[C@H]1C(=O)N[C@@H](CO)C(=O)N[C@@H](CO)C(=O)NCC(=O)N[C@@H](C)C(=O)N1CCC[C@H]1C(=O)N1CCC[C@H]1C(=O)N1CCC[C@H]1C(=O)N[C@@H](CO)C(N)=O [Compound 251] ({X24-GABA}-EGTFTSDYSI[Aib]LDKIAQK([AEEA-AEEA-γGlu-C20 diacid])AFVQWLIAGGPSSGAPPPS-NH2; C-terminus assumed),0.1 to 1,10 to 100,–
CC[C@H](C)[C@H](NC(=O)[C@H](CC(C)C)NC(=O)[C@H](Cc1c[nH]c2ccccc12)NC(=O)[C@H](CCC(N)=O)NC(=O)[C@@H](NC(=O)[C@H](Cc1ccccc1)NC(=O)[C@H](C)NC(=O)[C@H](CCCCNC(=O)COCCOCCNC(=O)COCCOCCNC(=O)CC[C@H](NC(=O)CCCCCCCCCCCCCCCCCCC(=O)O)C(=O)O)NC(=O)[C@H](CCC(N)=O)NC(=O)[C@H](C)NC(=O)[C@@H](NC(=O)[C@H](CCCNC(=N)N)NC(=O)[C@H](CC(=O)O)NC(=O)[C@H](CC(C)C)NC(=O)C(C)(C)NC(=O)[C@@H](NC(=O)[C@H](CO)NC(=O)[C@H](Cc1ccc(O)cc1)NC(=O)[C@H](CC(=O)O)NC(=O)[C@H](CO)NC(=O)[C@@H](NC(=O)[C@H](Cc1ccccc1)NC(=O)[C@@H](NC(=O)CNC(=O)[C@H](CCC(=O)O)NC(=O)CCNC(=O)C1(c2cccnc2)CCCC1)[C@@H](C)O)[C@@H](C)O)[C@@H](C)CC)[C@@H](C)CC)C(C)C)C(=O)N[C@@H](C)C(=O)NCC(=O)NCC(=O)N1CCC[C@H]1C(=O)N[C@@H](CO)C(=O)N[C@@H](CO)C(=O)NCC(=O)N[C@@H](C)C(=O)N1CCC[C@H]1C(=O)N1CCC[C@H]1C(=O)N1CCC[C@H]1C(=O)N[C@@H](CO)C(N)=O [Compound 243] ({X60-βAla}-EGTFTSDYSI[Aib]LDRIAQK([AEEA-AEEA-γGlu-C20 diacid])AFVQWLIAGGPSSGAPPPS-NH2; C-terminus assumed),0.1 to 1,1 to 10,> 1000
CC[C@H](C)[C@H](NC(=O)[C@H](CC(C)C)NC(=O)[C@H](Cc1c[nH]c2ccccc12)NC(=O)[C@H](CCC(N)=O)NC(=O)[C@@H](NC(=O)[C@H](Cc1ccccc1)NC(=O)[C@H](C)NC(=O)[C@H](CCCCNC(=O)COCCOCCNC(=O)COCCOCCNC(=O)CC[C@H](NC(=O)CCCCCCCCCCCCCCCCCCC(=O)O)C(=O)O)NC(=O)[C@H](CCC(N)=O)NC(=O)[C@H](C)NC(=O)[C@@H](NC(=O)[C@H](CCCCN)NC(=O)[C@H](CC(=O)O)NC(=O)[C@H](CC(C)C)NC(=O)C(C)(C)NC(=O)[C@@H](NC(=O)[C@H](CO)NC(=O)[C@H](Cc1ccc(O)cc1)NC(=O)[C@H](CC(=O)O)NC(=O)[C@H](CO)NC(=O)[C@@H](NC(=O)[C@H](Cc1ccccc1)NC(=O)[C@@H](NC(=O)CNC(=O)[C@H](CCC(=O)O)NC(=O)CCCNC(=O)C(C)(C)n1ccc(C)n1)[C@@H](C)O)[C@@H](C)O)[C@@H](C)CC)[C@@H](C)CC)C(C)C)C(=O)N[C@@H](C)C(=O)NCC(=O)NCC(=O)N1CCC[C@H]1C(=O)N[C@@H](CO)C(=O)N[C@@H](CO)C(=O)NCC(=O)N[C@@H](C)C(=O)N1CCC[C@H]1C(=O)N1CCC[C@H]1C(=O)N1CCC[C@H]1C(=O)N[C@@H](CO)C(N)=O [Compound 252] ({X83-GABA}-EGTFTSDYSI[Aib]LDKIAQK([AEEA-AEEA-γGlu-C20 diacid])AFVQWLIAGGPSSGAPPPS-NH2; C-terminus assumed),0.1 to 1,10 to 100,< 1000
